Results: PubChem BioAssay AID485297 (National Center for Advancing Translational Sciences (NCATS), 2010)
The campaign covered roughly 320,000 compounds. About 9,100 (2.8%) were called active. Inconclusive means that the source gave no clear call. Such entries were picked first, then a sample of the others. Calls come from the whole dose curve; as a rule, active = well fitted activation curve with a large enough effect; inconclusive = small, poorly fitted or top-dose-only effect; inactive = no such curve, though single readings can be large or run the other way. Potencies of inconclusive entries are left out as doubtful fits.

Assay: qHTS Assay for Rab9 Promoter Activators; note: nearly all actives have a fitted effect of over 60% in size
Settings: Huh7 Rab9 promoter-luciferase reporter, luminescence, 24 h; series mostly up to 9.22 µM
Summary of the method: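 Stable Rab9-luc Huh7, 1500 cells/well, 2 h settle; cmpd in DMSO, 24 h, 37 °C/5% CO2; luciferase reagent 10 min RT; luminescence.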
Potency is the fitted concentration of half-maximal effect; tags give direction and shape of the fitted curve.

SMILES | Potency
Nc1ccc2nc(CCCCc3nc4ccccc4[nH]3)[nH]c2c1 | inactive
O=C(NCCSc1ccccc1)c1cncc(Br)c1 | inconclusive [activator, single point]
O=C(OCc1csc(-c2ccccc2)n1)c1ccc(O)cc1 | inconclusive [activator, single point]
Cc1nc2ccc(C(=O)Nc3ccccc3Cl)cc2s1 | active: 1.12 µM
O=C(COC(=O)c1cc[n+]([O-])cc1)Nc1ccc(Cl)cc1C(F)(F)F | inactive
Cc1ccc(C(=O)Nc2cccc(-c3ccc(N4CCOCC4)nn3)c2)cc1C | active: 2.82 µM
O=C(Nc1cc2c(cc1Cl)OCCCO2)c1ccco1 | active: 3.55 µM
CCC(=O)Nc1nc2ccc(NC(C)=O)cc2s1 | inconclusive [activator, single point]
O=C(NC1CC1)c1ccc(-c2ccccc2)cc1 | inconclusive [activator, partial curve]
N#CCCN(C(=O)COC(=O)C1CCN(S(=O)(=O)c2cccs2)CC1)c1ccccc1 | inactive
CC(=O)Nc1ccc2cc3ccc(NC(C)=O)cc3nc2c1 | inconclusive [activator, partial curve]
C=CCn1c(C)cc(C(=O)COC(=O)c2cncc(Br)c2)c1C | inconclusive [activator, single point]
COc1ccccc1C(=O)C1CCCN(Cc2cccc(OCCO)c2)C1 (centres undefined) | inactive
O=c1cc(-c2ccccc2)[nH]n1-c1nc2ccccc2s1 | inactive
COc1ccccc1-n1cnc2cc(NC(=O)c3ccco3)ccc21 | inactive
O=C(Nc1ccc(C(F)(F)F)cn1)Nc1cccs1 | inconclusive [activator, single point]
COC(=O)CCC(=O)Nc1ccc(N=Nc2ccccc2)cc1 | inconclusive [activator, partial curve]
COCc1cc(C)nc(SCC(=O)Nc2ccc(C)c(C)c2)c1C#N | inconclusive [activator, partial curve]
CC(=O)c1c(C)cc(C)c(CSc2nnc(-c3ccco3)o2)c1C | inconclusive [activator, partial curve, poor fit]
Cc1ccsc1/C=N/NC(=O)c1cccs1 | inconclusive [activator, partial curve]
CCC1(CC)Nc2ccccc2C(=O)N1c1ccc(OC)cc1 | active: 2.51 µM
COc1ccc(-c2nnc(SCc3ccccc3)n2N)cc1 | inconclusive [activator, single point]
Cc1ccc(C2=NN=C(NC(=O)C(F)(F)F)SC2)cc1 | active: 0.794 µM
Cc1ccc(-c2nc3cc(Cl)ccc3o2)cc1 | inactive
O=C(NCCCN1CCOCC1)c1sc2cc(Cl)ccc2c1Cl | inactive
COc1ccccc1N1CCN(/N=C/c2ccc([N+](=O)[O-])cc2)CC1 | active: 3.98 µM
Cc1ccsc1/C=C1/C(=O)NN(c2ccccc2)C1=O | inactive

SMILES | Potency
COc1ccc(OCc2cc(C(=O)N3CCN(CC4CC4)CC3)no2)c(Cl)c1 | inconclusive [activator, partial curve, poor fit]
O=C(Nc1ccc(F)cc1F)c1cc(-c2ccc3c(c2)OCO3)on1 | inconclusive [activator, full curve, poor fit]
Cc1cc(C(=O)Nc2nc3ccc(Cl)cc3s2)nn1C | active: 0.631 µM
Cc1ccc(C(=O)Nc2sc(C(=O)N(C)C)c(C)c2C#N)cc1 | inactive
Cc1cc(C)c2c3c(sc2n1)C(c1ccccc1)C(C#N)=C(N)O3 (centres undefined) | inconclusive [activator, single point]
Cc1csc(NC(=O)c2ccc(COc3ccccc3)o2)n1 | inconclusive [activator, full curve]
NC(=O)c1ccccc1N/C=C1\CCCCC1=O | inactive
O=C(O)Cc1ccc2sc(-c3ccccc3)nc2c1 | inactive
O=C(CCNC(=O)c1ccccc1)OCC(=O)c1ccccc1 | inconclusive [activator, single point]
CC(=O)Nc1ccc(-c2cn3cc(C)ccc3n2)cc1 | active: 1 µM
O=C(CCS(=O)(=O)c1ccccc1)Nc1ccc(-c2nc3ccccc3s2)cc1 | active: 0.501 µM
Fc1ccc(/C=N/Nc2cc(N3CCOCC3)ncn2)cc1 | inconclusive [activator, single point]
CCN(CC)c1ccc(CN(C(=O)c2cccs2)C2CCS(=O)(=O)C2)cc1 (centres undefined) | inactive
CC(=O)Oc1ccc(C(=O)Nc2cc(C)on2)cc1 | inconclusive [activator, partial curve]
Cc1ccc2c(c1)C(=O)CC(c1ccc3c(c1)OCCO3)O2 (centres undefined) | inconclusive [activator, single point]
O=S(=O)(Nc1ccc(O)c2ccccc12)c1cccs1 | inactive
O=C(O)c1ccc(N/N=C/c2ccc3nccnc3c2)cc1 | inactive
CN(C)c1ccc(-c2noc(-c3ccccc3O)n2)cc1 | inconclusive [activator, single point]
CC(C)(C)C1CCc2c(C(=O)N/N=C/c3cccs3)csc2C1 (centres undefined) | inconclusive [activator, single point]
CCN(CC)c1ccc(CN2CCC(C(=O)NCc3ccc(C)cc3)CC2)cc1 | inactive
CCc1ccc(NC(=O)NCCCN2CCCC2=O)cc1 | inconclusive [activator, single point]
O=c1[nH]c2cc3c(cc2cc1C(c1nnnn1Cc1ccccc1)N1CCCCCC1)OCCO3 (centres undefined) | inactive
O=C(Nc1ccon1)c1ccc(N2CCCCC2)c([N+](=O)[O-])c1 | active: 2 µM
S=C(c1ccc(-c2ccc(Cl)cc2Cl)o1)N1CCCC1 | inconclusive [activator, single point]
CN(C(=O)CSc1nnc(-c2ccc(OC(F)F)cc2)n1N)C1CCS(=O)(=O)C1 (centres undefined) | inactive
O=C(CSc1ccccc1C(=O)O)c1ccc(Cl)cc1 | active: 3.98 µM
Cc1c(C(=O)NC(Cc2ccccc2)c2nc3ccccc3[nH]2)cccc1[N+](=O)[O-] (centres undefined) | inactive

SMILES | Potency
O=C1NC(=S)N/C1=C/c1ccc2ccccc2c1 | inactive
COc1ccc(-c2cc(C(=O)Nc3cccnc3Cl)no2)cc1 | inconclusive [activator, partial curve]
O=c1oc(-c2ccccc2)nc2sc3c(c12)CCCC3 | inconclusive [activator, single point]
O=C(NC(=S)Nc1ccc(Cl)cn1)C12CC3CC(CC(C3)C1)C2 | inconclusive [activator, partial curve]
CCc1ccccc1NC(=O)c1cccc(NC(=O)/C=C/c2ccco2)c1 | inconclusive [activator, partial curve]
O=C(/C=C/c1ccccc1[N+](=O)[O-])NCCN1C(=O)S/C(=C\c2ccc(F)cc2)C1=O | inconclusive [activator, partial curve]
Fc1ccc(C2=NNC(=NCc3ccccc3)SC2)cc1F | inconclusive [activator, single point]
O=C(c1cnn(-c2ccc(Cl)cc2)c1)c1ccccc1O | active: 3.55 µM
Nc1nc2c(cnn2CCc2ccccc2)c2nc(-c3ccco3)nn12 | inconclusive [activator, partial curve]
CCOC(=O)c1sc(-c2ccccc2)cc1N | inconclusive [activator, single point]
O=C(Oc1ccc(-c2nc(-c3ccccn3)no2)cc1)c1ccccc1 | inconclusive [activator, full curve]
CCc1ccc(-c2cn3nc(C)c(C)nc3n2)cc1 | inconclusive [activator, full curve, poor fit]
CCOC(=O)c1snc(-c2ccc(F)cc2)c1N | inconclusive [activator, single point]
CCOc1ccc(N=C/C=C/c2ccccc2)c(O)c1 | inconclusive [activator, single point]
CCOC(=O)c1sc(N/N=C/c2cccc(C)c2)nc1C | inconclusive [activator, partial curve]
COC(=O)c1c(C)[nH]c(O)c1C=Nc1ccc(C(C)C)cc1 | inconclusive [activator, single point]
Cc1ccc(-c2nn3c(C)nnc3s2)cc1N | inconclusive [activator, single point]
CCNC(=O)c1ccc(NS(=O)(=O)c2ccc3[nH]c(=O)[nH]c3c2)cc1 | active: 3.55 µM
Cc1ccc2nc(SCC(=O)Nc3ccc4c(c3)OCCO4)[nH]c2c1 | inactive
CCCC(=O)Nc1ccc(C2C(=O)c3ccccc3C2=O)cc1 | active: 3.55 µM
COc1cccc(C2=NN(S(C)(=O)=O)C(c3cccs3)C2)c1 (centres undefined) | active: 2.82 µM
O=C(O)c1ccc(N=Nc2c(O)[nH]c3ccccc23)cc1 | inconclusive [activator, full curve, poor fit]
O=C(NCc1ccccc1)c1ccccc1NC(=O)C1CCCCC1 | inactive
CCOc1ccc2nc(NC(=O)c3ccccn3)sc2c1 | inconclusive [activator, full curve, poor fit]
Nc1nc(Nc2ccccc2F)nc(N2CCCC2)c1[N+](=O)[O-] | inconclusive [activator, single point]
